Experimental data as given in PubChem BioAssay AID485364 (National Center for Advancing Translational Sciences (NCATS), 2010).
The whole screen tested about 360,000 compounds, of which about 11,000 (3.1%) were called active. Inconclusive means that the source gave no clear call. Such entries were picked first, then a sample of the others. The call rests on the fitted dose curve; in most records, active means well fitted inhibition curve with a large enough effect; inconclusive means small, poorly fitted or top-dose-only effect; inactive means no such curve, though single readings can be large or run the other way. No potency is given beside an inconclusive call; the fits are too rough.

Molecular target: Schistosoma mansoni thioredoxin glutathione reductase (TGR) (UniProt Q962Y6)
Experiment: qHTS Assay for the Inhibitors of Schistosoma Mansoni Peroxiredoxins; further: nearly all actives have a fitted effect of over 60% in size
Conditions: purified TGR, DTNB reduction, TNB absorbance 405 nm; series mostly up to 114 µM
In short: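 Kinetic colorimetric format: TGR-catalysed, NADPH-driven DTNB reduction monitored via TNB absorbance. Enzyme dispensed at 20 nM; compound exposure 15 min at room temperature before reaction start.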
Potency means the concentration at half of the fitted maximal effect; tags describe the fitted curve by direction and shape.

Compound	Potency
c1ccc(-n2c(SCc3ccncc3)nnc2-c2ccco2)cc1	inconclusive [inhibitor, full curve]
CCc1nnc(NS(=O)(=O)c2ccc(NC(=S)NC(=O)c3ccc(OC)c(OC)c3)cc2)s1	active: 39.8 µM
COC(=O)[C@@H]1CC[C@H](C)[C@@H](c2ccc(C)cc2)N1C(=O)c1ccc(/C=N/OCC[C@@H]2C=C[C@H](OC(C)=O)[C@@H](COC(C)=O)O2)cc1	inconclusive [inhibitor, partial curve]
N#Cc1c(C(F)(F)F)cc(=O)[nH]c1SCC(=O)O	inconclusive [inhibitor, single point]
CCc1c(C)c(C#N)c2nc3ccccc3n2c1Cl	active: 11.2 µM
O=C(CSc1ccc2c(c1)OCCO2)Nc1ncccc1O	inconclusive [inhibitor, partial curve]
S=C(Nc1ccccc1)Nc1nccs1	active: 11.2 µM
CC(C)C(=O)N1CCN(CCN=CC2=C(O)CC(c3ccco3)CC2=O)CC1 (centres undefined)	inconclusive [inhibitor, partial curve]
COC(=O)c1ccc(NC(=O)CCN2C(=O)CSC2=O)cc1	inactive
CCCCC(c1nnnn1Cc1ccco1)N1CCN(C(=O)c2ccco2)CC1 (centres undefined)	inconclusive [inhibitor, partial curve]
CC(=C/c1ccco1)/C=N/NC(=O)c1ccncc1	active: 44.7 µM
FC(F)(F)c1ccccc1NC(=S)Nc1cccc2cnccc12	active: 35.5 µM
C#CCOCCOCCOCCNc1nc(N2CCN(C(=O)[C@H]([C@@H](C)CC)n3cc([C@@H](N)CO)nn3)CC2)nc(N2CCN(C(=O)[C@H]([C@@H](C)CC)n3cc([C@@H](N)Cc4ccc(O)cc4)nn3)CC2)n1	inconclusive [inhibitor, single point]
Cc1cccnc1NC(=O)c1ccc(OCc2c(C)noc2C)cc1	inactive
O=C(OCc1ccccc1Cl)C1CC(=O)N(Cc2ccco2)C1 (centres undefined)	inconclusive [inhibitor, partial curve]
N#CC1=C2SCN(c3ccc(F)cc3)CN2C(=O)CC1c1cccc(F)c1 (centres undefined)	inconclusive [inhibitor, partial curve]
Cc1cc(C)n2nc(SCC(=O)c3ccc[nH]3)nc2n1	active: 31.6 µM
CCS(=O)(=O)Nc1cccc(C2=NN(S(=O)(=O)c3ccc(C)cc3)C(c3ccco3)C2)c1 (centres undefined)	inconclusive [inhibitor, partial curve]
S=C(Nc1cccnc1)Nc1cccc2cnccc12	active: 44.7 µM
COCCNC(=O)/C(C#N)=C/c1ccc(C)o1	inactive
O=C(c1oc2ccccc2c1CSCc1ccccc1)N1CCN(c2ncccn2)CC1	inconclusive [inhibitor, single point]
CC1=C(C(=O)OC(C)C)C(c2ccc(C)o2)C(C(=O)OC(C)C)=C(C)N1	inconclusive [inhibitor, partial curve]
CN(C)S(=O)(=O)c1cccc(NC(=S)N2CCc3ccccc32)c1	inconclusive [inhibitor, partial curve]

Compound	Potency
O=c1cc(-c2ccc(O)c(O)c2)oc2cc(O)c(C3OC(CO)C(O)C(O)C3O)c(O)c12 (centres undefined)	inconclusive [inhibitor, partial curve]
Cc1cc(=S)c2ccccc2[nH]1	inconclusive [inhibitor, full curve, poor fit]
O=C(CSc1nc2c([nH]c3ccccc32)c(=O)n1-c1ccccc1F)Nc1ccccc1C(F)(F)F	inactive
CCN1CCN(C(=O)C2CCN(c3nnc(-n4c(C)ccc4C)s3)CC2)CC1	inconclusive [inhibitor, partial curve]
Cc1ccc2[nH]c3ccccc3c(=O)c2c1	inconclusive [inhibitor, single point]
COc1ccc2c(c1OC)C(=O)N1c3ccccc3N=C(c3ccc([N+](=O)[O-])cc3)CC21 (centres undefined)	inconclusive [inhibitor, partial curve]
CCOC(=O)c1c(-c2ccc(C)o2)csc1NC(=O)COC(=O)c1ccc(NC(N)=O)cc1	active: 10 µM
NC1=NC(=O)C2(COC(c3cccnc3)OC2)S1 (centres undefined)	inactive
CCN(C(=O)COC(=O)CCC1CCCC1)c1c(N)n(Cc2ccccc2)c(=O)[nH]c1=O	inactive
O=c1[nH]c(C2CCN(S(=O)(=O)c3ccc4c(c3)OCCO4)CC2)nc2c1nnn2Cc1ccccc1F	inactive
COc1ccc(CN2CCNC(=O)C2CC(=O)N(C)CCC2CCOCC2)c(OC)c1 (centres undefined)	inconclusive [inhibitor, single point]
COc1cccc(-c2nc(CS(=O)(=O)CC(=O)NCCc3ccc(OC)c(OC)c3)c(C)o2)c1	inconclusive [inhibitor, partial curve]
COc1ccccc1N1C(=O)CC(Sc2nccc(C)n2)C1=O (centres undefined)	inconclusive [inhibitor, partial curve]
CC(=O)n1cc([C@@H]2C=C(C(=O)NCc3ccccc3)O[C@H](OCCCCO)C2)c2ccccc21	active: 50.1 µM
Cc1cc(C#N)c(C)n1-c1cc(C(F)(F)F)ccc1N1CCOCC1	inconclusive [inhibitor, partial curve]
O=C(Nc1ccc(N2CCCC2)c(Cl)c1)c1ccc([N+](=O)[O-])o1	inconclusive [inhibitor, full curve]
Cc1ccc(Cl)c(NC(=O)CCl)c1Cl	active: 31.6 µM
C=CC[n+]1c(C)csc1Nc1cccc(Br)c1	inconclusive [inhibitor, partial curve]
COc1ccccc1N(CN1CCCC1=O)C(=O)COc1ccccc1	inconclusive [inhibitor, full curve, poor fit]
CN1CCCN(c2ccc([N+](=O)[O-])nc2)CC1	inconclusive [inhibitor, partial curve, poor fit]
Cc1cc(C(=O)NCc2cccs2)n(-c2ccccc2)n1	inconclusive [inhibitor, partial curve]
Cn1c2ccccc2c(=O)c2cc(C#Cc3ccsc3)ccc21	inconclusive [inhibitor, partial curve]
CC(=O)N1c2ccccc2C(=O)C1N(C)c1ccc(C)cc1 (centres undefined)	inactive

Compound	Potency
Cc1ccccc1C(=O)NNC(=O)c1ccc(Br)cc1	inconclusive [inhibitor, single point]
Cc1ccc(NC(=O)CCS(=O)(=O)c2ccc(Br)cc2)c(C)c1	inactive
O=C(CC1C(=O)NCCN1Cc1cccc(F)c1F)NCCCC1CCCC1 (centres undefined)	inconclusive [inhibitor, partial curve]
O=C(COc1ccc(Br)cc1)N(Cc1ccco1)C1CCS(=O)(=O)C1 (centres undefined)	inconclusive [inhibitor, partial curve]
CC1Nc2ncnc(N3CCOCC3)c2N(Cc2ccccc2)C1=O (centres undefined)	inconclusive [inhibitor, partial curve]
Cc1cccc(OCCCC(=O)NCc2ccco2)c1	inconclusive [inhibitor, partial curve]
Cc1c(C(=O)N2CCCCC2)c(S(=O)(=O)NCc2ccc(F)cc2)c(C)n1C	inconclusive [inhibitor, full curve, poor fit]
CCOC(=O)C1(Cc2ccccc2)CCN(Cc2cccc3nccnc23)CC1	inactive
COc1cc(NC(=O)COc2cccc3c2OC(C)(C)C3)cc(OC)c1OC	inactive
COc1cccc(-c2nc(CSCC(=O)N3CCc4ccccc43)c(C)o2)c1	inconclusive [inhibitor, partial curve]
O=C(NC(=S)Nc1ccccc1[N+](=O)[O-])c1ccco1	active: 50.1 µM
CCOC(=O)C1=C(O)/C(=C/c2cc(C)n(-c3ccccc3)c2C)N=C1C	active: 28.2 µM
O=C(CCn1nc(-c2ccc(Cl)cc2)ccc1=O)NCc1ccccn1	inconclusive [inhibitor, single point]
Cc1ccc2nc(-c3ccc(O)c(O)c3)cn2c1	inconclusive [inhibitor, partial curve]
COc1ccc(C(=O)Nc2cccc3nc(C)ccc23)cc1OC	inconclusive [inhibitor, full curve, poor fit]
COc1ccc(O)c(/C=C2/SC(=S)N(Cc3ccccc3)C2=O)c1	inconclusive [inhibitor, single point]
Cc1ccc2c(CC(=O)N(Cc3ccc(Cl)cc3)Cc3ccco3)coc2c1	inconclusive [inhibitor, full curve]
O=C(O)C1CSC(c2coc3ccccc3c2=O)N1 (centres undefined)	active: 2.51 µM
COc1ccc(-c2cc(N)n(S(=O)(=O)c3c(F)c(F)c(F)c(F)c3F)n2)cc1OC	active: 2.51 µM
O=C1c2ccccc2NC(c2ccc(-c3cccc(F)c3)o2)N1O (centres undefined)	inconclusive [inhibitor, partial curve]
CCN(CC(=O)Nc1ccc(NC(C)=O)cc1)C(=O)c1cccc(S(=O)(=O)N2CCc3ccccc3C2)c1	inconclusive [inhibitor, single point]
CC(C)CC(NC(=O)c1ccco1)C(=O)Nc1ccc2c(c1)OCCO2 (centres undefined)	inactive
O=S(=O)(Cc1ccccc1)Cc1cnc(Cl)s1	active: 39.8 µM
